According to PubChem BioAssay AID1259407 (Chemical Carcinogenesis Research Information System (CCRIS), 2018):
Entries after “also recorded” stand apart in the source; their conditions may differ. Certain results were filed several times, with different values. The other results are left out here. The rule behind the calls is not given here. There may be further records. Values that stand side by side differ for a reason that is not stated; dose, time, organism, isomer or construct need not be as stated for each record. Records carry a tag for their origin. Letters hold for one entry only.

Tested on: CCRIS mutagenicity, Ames/micronucleus/aberration tests
Experiment: CCRIS mutagenicity studies
[1] = Test System: MOUSE LYMPHOMA, Strain/Indicator: L5178Y (TK+/TK-), Metabolic Activation: NONE, Method: SUSPENSION/PLATE
[2] = Test System: MOUSE LYMPHOMA, Strain/Indicator: L5178Y (TK+/TK-), Metabolic Activation: RAT, LIVER, S-9, AROCLOR 1254, Method: SUSPENSION/PLATE

With `Oc1ccccc1-c1ccccc1` the mutagenic call [1] was “active; positive [study A]; also recorded: inactive; negative. reevaluation of results: negative [study B]” and the mutagenic call [2] was “active; positive [study A]; also recorded: active; positive. reevaluation of results: positive [study B]”.
With `C=C(C)CN(CC)c1c([N+](=O)[O-])cc(C(F)(F)F)cc1[N+](=O)[O-]` the mutagenic call (End Point: In vitro chromasomal aberrations, Test System: Chinese hamster ovary (CHO) cells, Metabolic Activation: Rat, Liver, S-9) was “inactive; negative; also recorded: inactive; negative. a positive response at 85 ug/ml was thought to be possibly attributabl”.
With `CCN(CC)c1ccc(C(=C2C=CC(=[N+](CC)CC)C=C2)c2ccc(N(CC)CC)cc2)cc1` the mutagenic call (Test System: AMES SALMONELLA TYPHIMURIUM, Strain/Indicator: TA1535, Metabolic Activation: HAMSTER, LIVER, S-9, AROCLOR 1254 (10%), Method: STANDARD PLATE) was “inactive; negative and active; positive”.
`Nc1ccc([N+](=O)[O-])cc1Cl` was tested, and the mutagenic call (End Point: IN VITRO CHROMOSOMAL ABERRATIONS, Test System: CHL CELLS, Metabolic Activation: NONE) was “inactive; negative; also recorded: inactive; negative; authors report equivocal results for ploidy changes; also recorded: active; positive (structural changes); authors report equivocal results for ploidy chang”.
`Oc1cccc2c1ccc1c3ccccc3ccc21` was tested, and the mutagenic call (Test System: AMES SALMONELLA TYPHIMURIUM, Strain/Indicator: TA100, Metabolic Activation: RAT, LIVER, S-9, AROCLOR 1254, Method: STANDARD PLATE) was “active; positive [study A] and inactive; negative [study B]”.
With `CN1CCC=C2c3nc(N)sc3CCC21` (configuration not stated) the mutagenic call (Test System: AMES SALMONELLA TYPHIMURIUM, Strain/Indicator: TA1538, Metabolic Activation: RAT, LIVER, S-9, AROCLOR 1254, Method: STANDARD PLATE) was “active; positive [sample A, study B] and inactive; negative [sample B, study A]”.
`O=c1cc(CO)occ1O` was tested, and the mutagenic call (Test System: AMES SALMONELLA TYPHIMURIUM, Strain/Indicator: TA100, Metabolic Activation: NONE, Method: PREINCUBATION) was “active; positive [study A] and inactive; negative [study B] and active; positive [study C]”.
For `CCN(CC)c1ccc2c(-c3ccc(S(=O)(=O)O)cc3S(=O)(=O)[O-])c3ccc(=[N+](CC)CC)cc-3oc2c1`, the mutagenic call (Test System: Mouse lymphoma, Strain/Indicator: L5178Y (tk+/tk-), Metabolic Activation: Rat, Liver, S-9, Aroclor 1254, Method: Suspension/plate) was “active; inconclusive (previous evaluation positive); also recorded: inactive; negative”.
In the case of `C=C(C)C(=O)OCCOC(=O)C(=C)C`, the mutagenic call [1] is reported as “inactive; negative [study A]; also recorded: active; positive. reevaluation of results: equivocal [study B]”, the mutagenic call [2] is reported as “active; positive [study A]; also recorded: active; positive. reevaluation of results: positive [study B]” and the mutagenic call (Test System: Mouse lymphoma, Strain/Indicator: L5178Y (tk+/tk-), Metabolic Activation: None, Method: Suspension/plate) is reported as “active; positive and inactive; negative”.
